Experimental data: the supplement of paper PMC3334620
In all, about 33,000 sequences were measured (“E-score (-0.5 to 0.5)”: median about -0.016, highest 2% from about 0.31 on). The list shows a part of the results.

The sequences below were run against Cst6 (UniProt P40535) (assay: PBM E-score (8-mer binding enrichment) (E-score (-0.5 to 0.5)); higher = stronger / more preferred TF binding; most listed sequences are background and not binding sites). Conditions: protein concentration: 200 nM; construct: GST-DNA-binding domain.
Method in brief: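 GST-tagged yeast TFs (full-length or DNA-binding domain) were made by PURExpress in vitro transcription/translation and applied at about 100-200 nM to universal all-10-mer Agilent arrays. The arrays were made double-stranded by primer extension, on fresh or once-stripped slides. Bound protein was detected with fluorescent anti-GST, and scans were normalised with masliner. Each ungapped eight-base word, pooled with its reverse complement, received an E-score (modified Wilcoxon-Mann-Whitney statistic) from the Universal PBM Analysis Suite.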

In order of rising “PBM E-score” value:
1. CGGGGGGA  -0.487
2. CCTCTCAG  -0.391
3. GAGGGTGC  -0.366
4. CCTCTCTC  -0.36
5. GGAGCGCA  -0.354
6. GCTGGGCC  -0.353
7. ACCCGGTC  -0.349
8. GGGGGCCA  -0.348
9. CCCGTAGC  -0.305
10. AGAGTTCA  -0.304
11. CAGTCCCG  -0.301
12. GACCCGTC  -0.294
13. AAGCTTCG  -0.281
14. ACCTACCC  -0.276
15. CCTGGCAA  -0.276
16. CGTGCTAG  -0.275
17. ACCTAGAG  -0.274
18. CTGGCCCA  -0.26
19. GCTTCCCC  -0.255
20. CGGGAATC  -0.251
21. ACCCGTTG  -0.244
22. AGGGCTGG  -0.236
23. TAGGACCA  -0.232
24. CCCCGTAG  -0.217
25. GGGAGGTA  -0.217
26. CGAGGAAG  -0.212
27. TACATGGA  -0.211
28. CCCGCCAG  -0.205
29. GACTCCGC  -0.204
30. GAAGGATC  -0.203
31. AGCCGCTA  -0.2
32. GGAGATCC  -0.194
33. AGACCGCA  -0.189
34. GGACAGAC  -0.185
35. GGCCTCGA  -0.178
36. GTCGGGCA  -0.176
37. GACTTAAC  -0.167
38. ACTTTAGG  -0.151
39. AGACACCC  -0.15
40. CCTCACGA  -0.148
41. CTAAGTTC  -0.148
42. AGGTGTCG  -0.147
43. CCGGCTTC  -0.144
44. AGGGTTGC  -0.143
45. AAGGGTGC  -0.142
46. CGCTCCAG  -0.138
47. TAGTCTCA  -0.135
48. CCAGCCAC  -0.133
49. AGTGTCTG  -0.128
50. AGTAGCTG  -0.113
51. CGTGTCAA  -0.112
52. ACATGCTG  -0.107
53. ACCCCACA  -0.107
54. ACCCATTC  -0.104
55. CAATACCG  -0.0941
56. ACTGATGC  -0.0908
57. AAGAGAGG  -0.0883
58. CCTAGGCG  -0.0842
59. CAACTTAC  -0.0734
60. TCAAGGGA  -0.0709
61. CAAGCAAG  -0.0686
62. TCAGAGCA  -0.068
63. CGTGAGCA  -0.0624
64. ACCGGAAC  -0.0572
65. AGCAAAGC  -0.0555
66. AGACGTTG  -0.055
67. GGCAAGTA  -0.0549
68. ACTGCGAT  -0.0542
69. ACCCAGAG  -0.0523
70. CACAGGAC  -0.0491
71. AGCTTGAA  -0.0483
72. GAGTGCGC  -0.044
73. CTCGGAGC  -0.0422
74. ATCAACCC  -0.0415
75. CAAGCGCC  -0.0407
76. CTCGTACA  -0.0362
77. GACGGGGC  -0.0314
78. CCTTTCAG  -0.0309
79. AGTGCGTA  -0.0215
80. TCAGACCA  -0.0207
81. CGTGCAGC  -0.0203
82. CTTTGCAA  -0.0189
83. GAGCCTAC  -0.0177
84. AACCTACT  -0.0169
85. AGTGGCAG  -0.00336
86. AATAAGCG  -0.00311
87. GAAAAGTC  -0.00152
88. CATGATTC  0.00239
89. CGCGACAC  0.00659
90. AATGTCTA  0.00848
91. CGTTAGGC  0.0088
92. GGTTCTCA  0.0118
93. GTCCGGGA  0.0127
94. CGTGCGAC  0.0141
95. ACTTATTC  0.0144
96. GACAGTGC  0.0144
97. CTACACAC  0.0193
98. CCAATATC  0.0205
99. CACCGACC  0.0233
100. AGAATGCT  0.0256
101. GTATTCCA  0.026
102. AAGATTTC  0.0274
103. GGCGCTAA  0.0329
104. ACCATTTG  0.0351
105. ATAGGCGG  0.0357
106. CATCCAAA  0.0363
107. AAATCGAT  0.0382
108. CACTCGCG  0.0405
109. ACACAACC  0.0407
110. TAGTTTGA  0.0422
111. CTACGACA  0.0462
112. CCCCGTAA  0.0481
113. CGCTTCCA  0.0555
114. AGCTCCAA  0.0556
115. GTTTGGAA  0.0575
116. ACATGCGT  0.0576
117. GAGGCGTA  0.0667
118. CATCAGGA  0.0688
119. ATCTCACA  0.0693
120. CAAAAAGA  0.07
121. AATGTTAA  0.0712
122. AAATGTTG  0.0786
123. CATTTGGA  0.0838
124. ATGAAACG  0.0842
125. AAGTTGAT  0.0864
126. CAAGTTAC  0.0951
127. ACTTCTCA  0.0961
128. ACAATGTG  0.0986
129. TAACATTA  0.0995
130. TATTCACA  0.101
131. AATCAAGC  0.102
132. ATAATGGA  0.109
133. TTGCAAAA  0.109
134. TCGTGCAA  0.116
135. CACTTCGG  0.118
136. CAACGTTA  0.119
137. CATTTCCG  0.12
138. AGTAGTTC  0.122
139. ATACTATG  0.124
140. ACTCAAAT  0.132
141. ACCACGTA  0.132
142. ATCACGTG  0.135
143. AACATATA  0.137
144. CTCAATGA  0.14
145. ATTACCGC  0.154
146. CCTTATGA  0.159
147. ATTATTGA  0.167
148. GAACTAAA  0.173
149. ATCATCTG  0.178
150. ATAATTCC  0.181
151. ACAACAAC  0.181
152. ACGCTGTG  0.188
153. GCGATTAA  0.189
154. GTCAGAAA  0.201
155. AGGCGCGA  0.205
156. AATAAAAC  0.206
157. TGCGAAAA  0.215
158. AAATTCCA  0.226
159. AACTATAT  0.236
160. AATTCACA  0.244
161. CGAAGTGC  0.245
162. TTACTAAA  0.252
163. ATTACTAA  0.26
164. ATTTTACC  0.264
165. CATAATCA  0.265
166. CGCATGAC  0.268
167. ATATGATA  0.296
168. GTCACTAA  0.302
169. ATTATATG  0.306
170. GCACGGCA  0.353
171. ATAATATA  0.358
172. AATTAATA  0.39
